Screen size: about 110,000 compounds; about 230 (0.21%) showed an effect of 50% or more. The list shows a part of the results.
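Also: 30 min substrate incubation versus DMSO and 10 µM JCP410 controls.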

This assay deals with DPAP1 (Plasmodium falciparum, UniProt Q8IIJ9). Description: primary screen, percent inhibition; read by cleavage of a fluorogenic dipeptide substrate; higher = more effect of the substance. More on the design: species or system P. falciparum D10 trophozoite lysates; single well.
Chain of DPAP1 (Q8IIJ9 whole entry, looked up): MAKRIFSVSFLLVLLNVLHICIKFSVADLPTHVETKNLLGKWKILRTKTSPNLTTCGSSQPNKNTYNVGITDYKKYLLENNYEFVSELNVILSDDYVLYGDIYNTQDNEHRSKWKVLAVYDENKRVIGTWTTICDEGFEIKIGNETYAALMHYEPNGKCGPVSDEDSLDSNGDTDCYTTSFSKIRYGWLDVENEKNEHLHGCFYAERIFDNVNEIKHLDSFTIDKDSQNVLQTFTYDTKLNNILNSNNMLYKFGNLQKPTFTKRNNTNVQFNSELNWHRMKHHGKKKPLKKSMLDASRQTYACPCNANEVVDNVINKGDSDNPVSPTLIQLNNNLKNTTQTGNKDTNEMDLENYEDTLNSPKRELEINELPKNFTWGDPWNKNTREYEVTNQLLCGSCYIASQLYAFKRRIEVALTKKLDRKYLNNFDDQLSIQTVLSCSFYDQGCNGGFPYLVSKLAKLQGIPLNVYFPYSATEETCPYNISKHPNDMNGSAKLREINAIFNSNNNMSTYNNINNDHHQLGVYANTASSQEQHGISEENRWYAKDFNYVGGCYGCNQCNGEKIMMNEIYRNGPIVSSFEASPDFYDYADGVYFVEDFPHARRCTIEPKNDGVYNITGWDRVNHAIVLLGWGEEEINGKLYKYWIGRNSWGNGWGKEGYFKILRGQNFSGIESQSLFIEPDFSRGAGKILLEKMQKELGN
On to `O=C(c1ccc(Cl)cc1Cl)n1cnc2ccccc21`, for which the “% Inhibition @ 10 uM” value was found to be 1.25%.

Take `COc1ccc(-c2cc(OC(=O)c3ccccc3C)c3c(C)oc(C)c3c(=O)c2)cc1OC`: the “% Inhibition @ 10 uM” value came to 2.21%. In the case of `O=C(Nc1ccc(-c2nc3cc(Cl)ccc3o2)cc1)c1cccc2ccccc12` it was -0.591%; in that of `CC1CCN(S(=O)(=O)c2ccc(C(=O)OCC(=O)c3ccc(Br)cc3)cc2)CC1`, 5.38%.

Regarding `Clc1ccc(C2=Nn3c(nnc3-c3ccc4c(c3)OCO4)SC2)cc1Cl`, the “% Inhibition @ 10 uM” value was determined as 3.38%.

With `CC(C)C[C@H](NC(=O)c1ccnc(N2CCCCC2)c1)C(=O)NCC#N`, the “% Inhibition @ 10 uM” value was -2.35%. In the case of `Cc1ccc(OCC(=O)Nc2ccc(N3CCN(C)CC3)cc2)cc1` it was 4.57%; in that of `Cc1cccc(-c2nc(CSc3nnc(C)n4c3cc3occc34)c(C)o2)c1`, -9.18%; in that of `O=C(O)c1cc(S(=O)(=O)N2CCCCC2)ccc1O`, -4.75%. In the case of `CC(C)(C)c1ccc(-c2nnc3sc(-c4ccccc4F)nn23)cc1` it was 9.4%; in that of `CN1CCN(C(=O)CN(Cc2ccccc2)S(C)(=O)=O)CC1`, 1.59%; in that of `COc1ccc(C)cc1N(CC(=O)Nc1ccccc1)S(=O)(=O)c1ccccc1`, -4.13%. In the case of `Oc1nnnc2c1cnn2-c1ccccc1` it was 0.596%. Regarding `Cc1ccc(CNC(=O)c2cc3c(=O)oc4ccccc4c3s2)o1`, the “% Inhibition @ 10 uM” value stood at 1.08%. `Cc1ccc(S(=O)(=O)NCCNC(=O)CN2CCOCC2)cc1`: the “% Inhibition @ 10 uM” value is 1.25%. `CN(Cc1ccccc1)S(=O)(=O)c1ccc(Cl)nc1`: the “% Inhibition @ 10 uM” value is -0.891%. As for `CCOC(=O)C(C#N)c1nc2ccccc2nc1N1CCCCC1` (stereo not drawn), the “% Inhibition @ 10 uM” value worked out at 0.989%.

Regarding `O=C(O)CSc1ccc(Cl)c(Cl)c1`, the “% Inhibition @ 10 uM” value is listed as -6.71%. Then `CC(C)CCNC(=O)C1CCN(c2nc3ccccc3o2)CC1`, with 0.387%; and `Cc1c(C(=O)NC(C)c2ccccc2)oc2ccc(S(=O)(=O)N3CCCCCC3)cc12` (stereo not drawn), with 1.07%; and `Fc1ccc(-c2cn3nc(-c4ccccc4)n4c3c2CCCC4)cc1`, with 1.03%.

For `COc1cc2c(cc1OC)C(COc1ccc(F)cc1)N(C(=O)/C=C/c1ccc3c(c1)OCO3)CC2` (stereo not drawn), the “% Inhibition @ 10 uM” value is 1.62%. Then `COCCNC(=O)c1oc2c(c1C)-c1nn(Cc3ccc(Cl)cc3)cc1CC2`, with -0.326%. In the case of `COc1ccc(S(=O)(=O)Nc2ccccc2C)cc1` it was 1.91%; in that of `N=C1SC2CS(=O)(=O)CC2N1CCc1ccccc1` (stereo not drawn), -4.75%; in that of `CCN(C(=O)COc1ccc(Br)cc1Cl)c1ccccc1`, -6.17%. As for `CCOc1c(Cl)cc(CNc2nc[nH]n2)cc1OC`, the “% Inhibition @ 10 uM” value was 0.032%. For `CC[C@H](NC(=O)[C@H](CS(=O)(=O)Cc1ccccc1OC(F)F)NC1=NS(=O)(=O)c2ccccc21)C(=O)c1nc2ccccc2o1`, the “% Inhibition @ 10 uM” value amounted to 1.61%. In the case of `CC1CCN(S(=O)(=O)c2ccc(F)c(C(=O)O)c2)CC1` it was -3.23%.

As to `COc1cc2nc(O)c3c(C)nc(C)c(C(=O)O)c3c2cc1OC`, the “% Inhibition @ 10 uM” value is listed as -1.85%.

With `CC(=O)c1ccc(NC(=O)CSc2nc3ccccc3s2)cc1`, the “% Inhibition @ 10 uM” value was -3.77%.

`Cc1cccc(-c2noc(CNC(=O)CCC3CCCC3)n2)c1`: the “% Inhibition @ 10 uM” value is -4.82%. Then `Cc1ccc(-c2cn3nc(N4CCCC(C(=O)N5CCCCCC5)C4)sc3n2)cc1` (stereo not drawn), with 5.11%; and `CSc1ccc(C2C3=C(O)CCCC3=NC(C)=C2C(=O)N2CCOCC2)cc1` (stereo not drawn), with -5.05%.

Regarding `O=C1CCSC2(C(=O)Nc3ccccc32)N1c1ccc(Br)cc1` (stereo not drawn), the “% Inhibition @ 10 uM” value turned out to be 6.17%. As to `c1ccc2c(c1)CCN(c1ncnc3[nH]cnc13)C2`, the “% Inhibition @ 10 uM” value is given as 0.00626%. In the case of `Cc1nc2c(c(C)nn2C(C)(C)C)c(C)c1CCC(=O)NCCCc1ccccc1`, the “% Inhibition @ 10 uM” value is -4.24%. In the case of `CC(=O)NS(=O)(=O)c1ccc(NC(=O)CCCOc2ccc(Cl)cc2Cl)cc1` it was 0.177%; in that of `COC(=O)c1nnn(-c2cccc(C)c2)c1O`, 6.31%. Then `O=C(NC1CCSC1=O)c1ccccc1Br` (stereo not drawn), with 3.85%. Regarding `COc1cc(CN2CCN(Cc3ccccc3C)CC2)cc(OC)c1`, the “% Inhibition @ 10 uM” value is on record as 1.95%.

In the case of `Cc1nn(CC(=O)Nc2ccc(F)c(Cl)c2)c(C)c1Br`, the “% Inhibition @ 10 uM” value stood at 2.82%. In the case of `O=C(Nc1ccc(S(=O)(=O)Nc2ccc(Cl)c(Cl)c2)cc1)c1ccc2c(c1)OCO2` it was -7.33%; in that of `Cc1nc2ccc(S(=O)(=O)NCC(=O)NCc3cccnc3)cc2s1`, 0.953%; in that of `O=C(CSc1nnc(CNC(=O)c2cccs2)o1)NC1CCCCC1`, -3.39%.

Take `COc1ccc(S(=O)(=O)c2cnc3cc(OC)c(OC)cc3c2NCc2ccc(F)cc2)cc1`: the “% Inhibition @ 10 uM” value is listed as -6.95%. Then `C=CCn1c(SCc2ccc(C)cc2)nc2c1c(=O)n(C)c(=O)n2C`, with -4.49%; and `COC(=O)C1=CN(C23CC4CC(CC(C4)C2)C3)C=C(C(=O)OC)C1c1ccsc1`, with -6.95%. In the case of `CCc1ccc(OCC(=O)NCCC2=CCCCC2)cc1` it was -2.94%; in that of `CC1CCCN(CCC(=O)c2ccc(Br)cc2)C1` (stereo not drawn), 1.19%.

In the case of `CCOC(=O)c1sc2nc(-c3cccs3)cc(C(F)(F)F)c2c1N`, the “% Inhibition @ 10 uM” value was 0.317%. Consider `Fc1ccccc1N1CCN(C2CCCCCC2)CC1`, for which the “% Inhibition @ 10 uM” value is -5.44%. `Cc1cccc(-c2noc(CN(C(=O)c3cccs3)C3CCCCC3)n2)c1`: the “% Inhibition @ 10 uM” value is reported as 2.14%. Then `CC(=O)c1ccc(S(=O)(=O)NCc2csc(C)n2)cc1`, with 5.65%; and `CCOCCOCCN1C(=O)c2ccccc2C1=O`, with -1.57%. Then `CCCN1CCC(N2CCN(c3ccc([N+](=O)[O-])cc3)CC2)CC1`, with 1.83%. Then `COc1ccc(CN2CCN(Cc3cc(OC)c(OC)c(OC)c3)CC2)cc1`, with -3.87%; and `CCOc1ncccc1C(=O)Nc1sc(C)c(C)c1C(=O)OC`, with 3.67%. In the case of `Cc1ccc2[nH]c3c(c2c1)CCc1c[nH]nc1-3`, the “% Inhibition @ 10 uM” value is -1.22%.

Regarding `CO/C(O)=C1\C(C)=NC(=S)NC1c1cccc(OC)c1OC` (stereo not drawn), the “% Inhibition @ 10 uM” value amounted to 17%. For `CNC(=O)CCS(=O)(=O)Cc1ccc(C)cc1`, the “% Inhibition @ 10 uM” value stood at 2.18%.

For `CC(=O)Nc1ccc(/C=C/c2ccccc2)cc1`, the “% Inhibition @ 10 uM” value is on record as 1.21%. Then `CN(CC(=O)Nc1ccc(Oc2ccccc2)cc1)S(=O)(=O)c1ccc(F)cc1`, with 0.83%; and `CC1=CC=CN2CC(O)CN=C12` (stereo not drawn), with 4.67%; and `CC(=O)c1ccc(NC(=O)c2ccc([N+](=O)[O-])cc2)cc1`, with -4.18%.

Consider `CNC(=O)CCc1nc(-c2ccccc2Cl)no1`, for which the “% Inhibition @ 10 uM” value stood at 2.02%. With `Cc1ccc(-c2nc3ccccc3c(C(=O)O)c2C)cc1`, the “% Inhibition @ 10 uM” value is recorded as 4.57%. For the compound `COc1ccc(CCNC(=O)CSc2nc3c(c(=O)n2C)SCC3)cc1OC`, the “% Inhibition @ 10 uM” value was 0.8%. In the case of `Cc1ccc2oc(=O)n(CCOc3ccccc3)c2c1` it was 0.983%. Then `C#CCOc1ccc(/C=C2\SC(=O)N(CC(=O)O)C2=O)cc1OC`, with -2.98%. In the case of `COc1ccc(/C=C/C2=NC(=C\c3ccc(Cl)cc3)/C(=O)O2)cc1` it was 6.4%; in that of `Cc1ccc(-c2nnc(N3CCCCC3)c3ccccc23)cc1S(=O)(=O)N1CCN(C)CC1`, -6.44%. `CCCn1cc2c(c1-c1ccccc1Cl)c(=O)n(C)c(=O)n2C`: the “% Inhibition @ 10 uM” value is -1.35%. In the case of `CC(C)Cc1ccc(-c2cc(C(=O)NCCCN3CCOCC3)c3ccccc3n2)cc1` it was 2.32%. Then `CCC(CC)C(=O)N1CCc2cc(OC)c(OC)cc2C1COc1ccc(OC)cc1` (stereo not drawn), with 6.04%; and `CCOc1ccc(C(=O)C(=O)c2ccc(OCC)cc2)cc1`, with 3.04%; and `Cc1ccc(CNC(=O)CCCn2nc(C)n3ccnc3c2=O)cc1`, with -7.02%. As to `COc1ccc(NC(=O)c2c(-c3ccccc3)noc2C)cc1`, the “% Inhibition @ 10 uM” value stood at 0.709%. In the case of `Cc1[nH]nc2c1C(c1ccc(-c3ccccc3Cl)o1)C(C#N)=C(N)O2` (stereo not drawn) it was 21.8%. For the compound `CCOC(=O)N1CCC(NC(=O)c2c(C)oc3ncnc(N4CCOCC4)c23)CC1`, the “% Inhibition @ 10 uM” value stood at 0.231%. Regarding `N#Cc1ccc(NC(=O)c2nn3c(C(F)(F)F)cc(-c4ccccc4)nc3c2Cl)cc1`, the “% Inhibition @ 10 uM” value was -1.66%.

For `O=C1CCS(=O)(=O)c2ccccc21`, the “% Inhibition @ 10 uM” value is recorded as -4.96%. Then `COc1ccc(OC)c(C2NC(=O)NC(C)=C2C(=O)Nc2cccc(C)c2C)c1` (stereo not drawn), with 0.0504%; and `O=C(Nc1ccc(NC(=O)C2CC23CCC3)cc1)C1CC12CCC2` (stereo not drawn), with 2.5%.

As for `O=C(O)C(Cc1c[nH]c2ccccc12)NS(=O)(=O)c1ccc(Cl)cc1` (stereo not drawn), the “% Inhibition @ 10 uM” value is listed as 0.983%. Then `Cc1c(Cl)cccc1-n1c(C)cc(/C=C2/C(=N)N3C=CSC3=NC2=O)c1C`, with -4.84%. Then `Cc1ccc(/N=C/c2c(C)nn(-c3ccccc3)c2O)cc1CN1C(=O)c2ccccc2C1=O`, with 0.687%; and `Cc1nn(CC(=O)NCCc2ccc(S(N)(=O)=O)cc2)c(=O)c2cc3sccc3n12`, with -1.58%. As to `O=c1ccccn1CCOc1ccc(Cl)cc1`, the “% Inhibition @ 10 uM” value came out at 1.72%. In the case of `COc1ccc(OCC(=O)Nc2ccc3c(c2)OCO3)cc1` it was -1.57%; in that of `Cn1cccc1Cc1nnc(SCC(=O)N2CCOCC2)n1-c1cccc(C(F)(F)F)c1`, 2.12%.

`CC(C)(C)c1cc(O)c(O)c(Br)c1`: the “% Inhibition @ 10 uM” value is recorded as -8.15%. `Cc1cccc(C(=O)Nc2ccc(S(=O)(=O)N3CCCCC3C)cc2)c1` (stereo not drawn): the “% Inhibition @ 10 uM” value is reported as 0.231%.

With `Cc1cc(Cl)c2c(ccc3ccccc32)n1`, the “% Inhibition @ 10 uM” value was -4.03%. Then `Cn1nc(-c2ccc(C(=O)NC3CCCCC3)cc2)c2ccccc2c1=O`, with -3.46%.

With `O=C(O)c1ccc(N2C(=O)c3cccc([N+](=O)[O-])c3C2=O)cc1O`, the “% Inhibition @ 10 uM” value is on record as -4.94%.

For the compound `COc1cc(-c2noc(-c3ccncc3)n2)cc(OC)c1OC`, the “% Inhibition @ 10 uM” value is 2.21%.

For `O=c1oc2ccccc2c2c1nnn2CCO`, the “% Inhibition @ 10 uM” value is reported as 0.685%. In the case of `O=C1N=C(N2CCCCC2)SC1=C1CCCCC1` it was -4.67%; in that of `Cc1ccc(-c2nc3c4cnn(C)c4ncn3n2)cc1`, -2.85%. Regarding `c1cc2c(cc1Nc1nc(-c3ccc(C4CCCCC4)cc3)cs1)OCO2`, the “% Inhibition @ 10 uM” value is -3.14%. In the case of `COC(=O)NC12CC3CC(CC(C3)C1=O)C2`, the “% Inhibition @ 10 uM” value is -1.85%.

Source of the values: paper PMC6919601, “Identification of Plasmodium dipeptidyl aminopeptidase allosteric inhibitors by high throughput screening” (PLoS ONE, 2019).
